Measurements from patent publication US6610479.

Target: human serum albumin (HSA), P02768

B1: ABP-Taq (full length Taq-polymerase fused to HSA-binding domain of Streptococcal protein G) (protein)
chain: LAEAKVLANRELDKYGVSDYHKNLINNAKTVEGVKDLQAQVVESAKKARISEATDGLSDFLKSQTPAEDTVKSIELAEAKVLANRELDKYGVSDYYKNLINNAKTVEGVKALIDEILAALPGMLPLFEPKGRVLLVDGHHLAYRTFHALKGLTTSRGEPVQAVYGFAKSLLKALKEDGDAVIVVFDAKAPSFRHEAYGGYKAGRAPTPEDFPRQLALIKELVDLLGLARLEVPGYEADDVLASLAKKAEKEGYEVRILTADKDLYQLLSDRIHVLHPEGYLITPAWLWEKYGLRPDQWADYRALTGDESDNLPGVKGIGEKTARKLLEEWGSLEALLKNLDRLKPAIREKILAHMDDLKLSWDLAKVRTDLPLEVDFAKRREPDRERLRAFLERLEFGSLLHEFGLLESPKALEEAPWPPPEGAFVGFVLSRKEPMWADLLALAAARGGRVHRAPEPYKALRDLKEARGLLAKDLSVLALREGLGLPPGDDPMLLAYLLDPSNTTPEGVARRYGGEWTEEAGERAALSERLFANLWGRLEGEERLLWLYREVERPLSAVLAHMEATGVRLDVAYLRALSLEVAEEIARLEAEVFRLAGHPFNLNSRDQLERVLFDELGLPAIGKTEKTGKRSTSAAVLEALREAHPIVEKILQYRELTKLKSTYIDPLPDLIHPRTGRLHTRFNQTATATGRLSSSDPNLQNIPVRTPLGQRIRRAFIAEEGWLLVALDYSQIELRVLAHLSGDENLIRVFQEGRDIHTETASWMFGVPREAVDPLMRRAAKTINFGVLYGMSAHRLSQELAIPYEEAQAFIERYFQSFPKVRAWIEKTLEEGRRRGYVETLFGRRRYVPDLEARVKSVREAAERMAFNMPVQGTAADLMKLAMVKLFPRLEEMGARMLLQVHDELVLEAPKERAEAVARLAKEVMEGVYPLAVPLEVEVGIGEDWLSAKE
- hot-start effect in kRAS PCR (primer-dimer formation): All the immobilised enzymes show hot-start effect in PCR with regard to preventing primer-dimer formation
